In PubChem BioAssay AID1508624 (National Center for Advancing Translational Sciences (NCATS), 2021):
Among all 48,000 compounds or so, about 120 (0.25%) were called active. Another 4% or so got no clear call; they are omitted. Calls follow the shape of the dose curve; as a rule, active = well fitted activation curve with a large enough effect; inconclusive = small, poorly fitted or top-dose-only effect, or another doubt; inactive = no such curve, though single readings can be large or run the other way. The list shows a part of the results.

Test: Primary qHTS for Identification of Small Molecule Activators of Huntingtin-Antisense Promoter Activity; also: nearly all actives have a fitted effect of over 55% in size
Conditions: HEK293 HTT-AS promoter firefly luciferase reporter (activity 0% = vehicle and -100% = no light), 24 h; series mostly up to 57.5 µM; activity change, positive = activation: at the top concentration
In short: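 HEK293 luciferase promoter-reporter cells (2,500/well) plated 24 h, then compounds added at up to 57.5 uM final for 24 h at 37 °C. Firefly luminescence by Dual-Glo, normalized to vehicle (0%) and zero RLU (-100%).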

**Q.** Which “activity change, positive = activation” value does the source give for `CCOc1ccc(Cn2c(CNS(=O)(=O)c3ccc(Cl)s3)nc3cccnc32)cc1` here?
**A.** Its value is inactive: -30.6%.

**Q.** For `COc1cccc(N2CCN(S(=O)(=O)c3ccc(-n4cnnn4)cc3)CC2)c1`, which “activity change, positive = activation” value is on record?
**A.** Its value is inactive: -6.57%.

**Q.** For `COc1cc(C2C(C(=O)Nc3ccccc3C)=C(C)Nc3ncnn32)ccc1OCC(N)=O` (stereo not drawn), which “activity change, positive = activation” value is on record?
**A.** Its value is inactive: -15.6%.

**Q.** For `O=C(NCC(c1ccc2c(c1)OCO2)N1CCOCC1)c1cccc(Cl)c1` (stereo not drawn), which “activity change, positive = activation” value is on record?
**A.** Its value is inactive: -12.9%.

**Q.** For `Nc1ccc(N2CCN(c3ncc(C(F)(F)F)cc3Cl)CC2)c(C(F)(F)F)c1`, which “activity change, positive = activation” value is on record?
**A.** The value was inactive: -37.9%.

**Q.** For `O=C(NCc1ccc(Cl)cc1)C(=O)NCC(c1cccs1)S(=O)(=O)c1cccs1` (stereo not drawn), which “activity change, positive = activation” value is on record?
**A.** Its value is inactive: -30.6%.

**Q.** With `Cc1cc(C)cc(NC(=O)C(=O)NCC(c2cccnc2)N2CCc3ccccc3C2)c1` (stereo not drawn) as the molecule, how does the “activity change, positive = activation” value read?
**A.** Its value is inactive: -26.1%.

**Q.** With `Clc1cccc(-n2ncc3c(N4CCC(Cc5ccccc5)CC4)ncnc32)c1` as the molecule, how does the “activity change, positive = activation” value read?
**A.** Its value is inactive: -6.41%.

**Q.** Which “activity change, positive = activation” value does the source give for `CCCCNC(=O)C1CCC(Cn2c(=O)c3sccc3n(CC(=O)N3CCCC3)c2=O)CC1` (stereo not drawn) here?
**A.** The value was inactive: -3.6%.

**Q.** Which “activity change, positive = activation” value does the source give for `O=C(Nc1cc(C(F)(F)F)ccc1Cl)c1nc2ccccc2nc1N1CCCCC1` here?
**A.** The value was inactive: 16.1%.

**Q.** For `COC(=O)c1cccnc1-n1c(=O)c2cccnc2n(CC(=O)Nc2ccccc2F)c1=O`, which “activity change, positive = activation” value is on record?
**A.** Its value is inactive: 4.62%.

**Q.** Which “activity change, positive = activation” value does the source give for `CCc1ccccc1NC(=O)c1sc2nc3c(cc2c1N)CN(Cc1ccccc1)CC3` here?
**A.** The value was inactive: -41.8%.

**Q.** With `CCOC(=O)c1c(C)oc2nc(C)nc(NCc3ccc(OC)cc3OC)c12` as the molecule, how does the “activity change, positive = activation” value read?
**A.** The value was inactive: -5.63%.

**Q.** Which “activity change, positive = activation” value does the source give for `O=C(CSc1nncn2c1cc1sccc12)Nc1ccc(Br)cc1F` here?
**A.** The value was inactive: -6.77%.

**Q.** With `O=C(Cn1c(=O)nc(-c2ccccc2)c2ccccc21)NCc1ccc(Cl)cc1` as the molecule, how does the “activity change, positive = activation” value read?
**A.** The value was inactive: -20.5%.

**Q.** Which “activity change, positive = activation” value does the source give for `CCc1ccc(NC(=O)CCn2nc(C)c(S(=O)(=O)N3CCCCC3)c2C)cc1` here?
**A.** Its value is inactive: -27.7%.

**Q.** Which “activity change, positive = activation” value does the source give for `CCOC(=O)C1(C)C=C(Nc2cccc(C(=O)O)c2)C(=O)N1c1cccc(C(=O)O)c1` (stereo not drawn) here?
**A.** Its value is inactive: 12.4%.

**Q.** For `COc1ccc(-c2noc(-c3ccc(N4CCN(c5ccccc5)CC4)c([N+](=O)[O-])c3)n2)cc1OC`, which “activity change, positive = activation” value is on record?
**A.** Its value is inactive: -8.18%.

**Q.** Which “activity change, positive = activation” value does the source give for `Cc1ccc(CNS(=O)(=O)c2ccc3[nH]c4c(c3c2)CCCC4)cc1` here?
**A.** Its value is inactive: -16.2%.

**Q.** With `Cc1cc(F)ccc1NS(=O)(=O)c1ccc(-n2cccn2)cc1` as the molecule, how does the “activity change, positive = activation” value read?
**A.** The value was inactive: -39.8%.

**Q.** Which “activity change, positive = activation” value does the source give for `O=C1CS(=O)(=O)C2(C(=O)N(Cc3ccccc3)c3ccccc32)N1c1ccccc1` (stereo not drawn) here?
**A.** The value was inactive: -12.8%.

**Q.** Which activity change, positive = activation does the source give for `Cc1cn[nH]c1` here?
**A.** The activity change, positive = activation was “inactive”.

**Q.** Which “activity change, positive = activation” value does the source give for `Cc1ccc(CCNC(=O)c2ccc3c(c2)nc2n3CCC(C)C2)cc1` (stereo not drawn) here?
**A.** Its value is inactive: -2.64%.

**Q.** For `COc1cc2c(cc1OC)C(COc1ccccc1OC)N(C(=O)COc1ccc(Cl)cc1)CC2` (stereo not drawn), which “activity change, positive = activation” value is on record?
**A.** The value was inactive: -32.6%.

**Q.** With `O=C(C1CCN(c2ncnc3c2nc2n3CCCCC2)CC1)N1CCN(c2cccc(Cl)c2)CC1` as the molecule, how does the “activity change, positive = activation” value read?
**A.** The value was inactive: -47.8%.

**Q.** Which “activity change, positive = activation” value does the source give for `COc1ccc(OC)c(CNC(=O)Cc2ccc(NC(=O)N3CCSc4ncccc43)cc2)c1` here?
**A.** The value was inactive: -29.1%.

**Q.** Which “activity change, positive = activation” value does the source give for `Cc1cc(C)n(CCc2nc3c4ccccc4nc(N4CCN(c5ccccc5)CC4)n3n2)n1` here?
**A.** Its value is inactive: -7.9%.

**Q.** With `Cc1ccc(NC(=O)CSc2ccc(-c3cccs3)nn2)cc1Cl` as the molecule, how does the “activity change, positive = activation” value read?
**A.** The value was inactive: -14.5%.

**Q.** Which “activity change, positive = activation” value does the source give for `CN(c1ccccc1)S(=O)(=O)c1ccc(NC(=O)c2cc(=O)c3ccccc3o2)cc1` here?
**A.** The value was inactive: 6.81%.

**Q.** Which “activity change, positive = activation” value does the source give for `COCC(=O)NCc1nc2cccnc2n1Cc1ccc(F)cc1` here?
**A.** Its value is inactive: -2.21%.

**Q.** For `COc1ccc(Nc2cc(C(=O)NCCCN3CCN(c4ccc(OC)cc4)CC3)c3ccccc3n2)cc1`, which “activity change, positive = activation” value is on record?
**A.** Its value is inactive: -40.4%.

**Q.** For `O=C(CCn1cnnn1)Nc1ccc(F)cc1`, which “activity change, positive = activation” value is on record?
**A.** The value was inactive: 42.6%.

**Q.** Which “activity change, positive = activation” value does the source give for `Cc1oc(C)c2c(=O)cc(-c3ccc4c(c3)OCO4)cc(OC(=O)c3cccc(Br)c3)c12` here?
**A.** Its value is inactive: -21%.

**Q.** Which “activity change, positive = activation” value does the source give for `Cc1ccc(Cn2c(CNS(=O)(=O)c3ccc(F)c(Cl)c3)nc3cccnc32)cc1` here?
**A.** Its value is inactive: -21.2%.

**Q.** With `COc1ccc(-n2ncc(C(=O)NCCc3ccsc3)c2C2CCN(C(=O)OC(C)(C)C)CC2)cc1` as the molecule, how does the “activity change, positive = activation” value read?
**A.** Its value is inactive: -6.97%.

**Q.** Which “activity change, positive = activation” value does the source give for `Cc1cc(NC(=O)c2cccc(Cl)c2)ccc1-c1cc2ccccc2oc1=O` here?
**A.** Its value is inactive: 17.7%.

**Q.** Which “activity change, positive = activation” value does the source give for `C=CCc1ccccc1OCCn1c(C2CC(=O)N(Cc3ccc(F)cc3)C2)nc2ccccc21` (stereo not drawn) here?
**A.** Its value is inactive: -40.2%.

**Q.** Which “activity change, positive = activation” value does the source give for `Cc1ccc(C)c(NC(=O)N2CCc3cc(S(=O)(=O)N4CCC(C)CC4)ccc32)c1` here?
**A.** The value was inactive: -18.8%.

**Q.** Which “activity change, positive = activation” value does the source give for `Cc1ccc2nc(-c3cccc(Cl)c3)c(Nc3ccc4c(c3)OCO4)n2c1` here?
**A.** The value was inactive: -3.88%.

**Q.** With `CC(Oc1ccccc1)C(=O)OCc1cc(=O)n2nc(C(C)C)sc2n1` (stereo not drawn) as the molecule, how does the “activity change, positive = activation” value read?
**A.** Its value is inactive: -10.4%.

**Q.** Which “activity change, positive = activation” value does the source give for `COc1ccccc1CCNC(=O)C(=O)NCC(c1cccs1)S(=O)(=O)c1ccc(F)cc1` (stereo not drawn) here?
**A.** The value was inactive: -32.8%.

**Q.** With `CCc1ccc(S(=O)(=O)c2nnn3c2nc(NCc2cccc(OC)c2)c2cc(Cl)ccc23)cc1` as the molecule, how does the “activity change, positive = activation” value read?
**A.** The value was inactive: -18.5%.

**Q.** Which “activity change, positive = activation” value does the source give for `COc1ccccc1CNC(=O)c1ccc2c(c1)nnn2C1CCCC1` here?
**A.** The value was inactive: 21.3%.

**Q.** With `Cc1ccc(NC(=O)N2CCN3CCCCC3C2)cc1F` (stereo not drawn) as the molecule, how does the “activity change, positive = activation” value read?
**A.** The value was inactive: 6.78%.

**Q.** With `Cc1ccsc1CN(C(=O)c1ccc(Br)cc1)C1CCS(=O)(=O)C1` (stereo not drawn) as the molecule, how does the “activity change, positive = activation” value read?
**A.** The value was inactive: -9.45%.

**Q.** Which “activity change, positive = activation” value does the source give for `O=C(Nc1cccc(-c2nc3ccccc3[nH]2)c1)c1ccccc1F` here?
**A.** Its value is inactive: -13%.

**Q.** With `COc1ccccc1NC(=O)Cn1cc(C(=O)c2ccncc2)c(=O)c2cc(C)ccc21` as the molecule, how does the “activity change, positive = activation” value read?
**A.** The value was inactive: -10.4%.

**Q.** Which “activity change, positive = activation” value does the source give for `COc1ccc(Cl)cc1NC(=O)C1CCN(S(=O)(=O)c2ccc3c(c2)CCCN3C(=O)C2CCC2)CC1` here?
**A.** The value was inactive: 15.9%.
